Consider 27 molecules from the supplement of paper PMC8047034.

Counter-ions that a name gives are not always drawn. The list shows a part of the results. Repeats are few or missing, and single values can be far off.

One assay concerns OVCAR4. The assay can be described thus: log2 surviving fraction (library drug vs vehicle, or drug + carboplatin vs carboplatin alone; relative to plate median); ovarian cancer lines: OVCAR4 is platinum-sensitive and Ov4Carbo platinum-resistant; higher = more cell survival. The following applies: library drug concentration 10 µM, 7 days.
The next assay deals with Ov4Carbo. The description is as above. The following applies: library drug concentration 10 µM, 7 days.

`COc1ccc2[nH]c([S@@+]([O-])Cc3ncc(C)c(OC)c3C)nc2c1` [Esomeprazole sodium (Nexium)]: the log2 surviving fraction is -0.912 in the assay on OVCAR4 (carboplatin co-treatment 0 µM), 0.0693 with OVCAR4 (carboplatin co-treatment 5 µM), -0.322 in the assay with Ov4Carbo (carboplatin co-treatment 0 µM) and -0.409 with Ov4Carbo (carboplatin co-treatment 5 µM).
Consider `N[C@H](C(=O)O)[C@H](O)c1ccc(O)c(O)c1` [Droxidopa (L-DOPS)], for which the log2 surviving fraction was 1.47 with OVCAR4 (carboplatin co-treatment 0 µM), -0.225 with OVCAR4 (carboplatin co-treatment 5 µM), -0.437 in the assay with Ov4Carbo (carboplatin co-treatment 0 µM) and 0.192 in the assay on Ov4Carbo (carboplatin co-treatment 5 µM).
For the molecule `CN(C)CCOC(C)(c1ccccc1)c1ccccn1` (stereo not drawn) [Doxylamine Succinate], the log2 surviving fraction in the assay with OVCAR4 (carboplatin co-treatment 0 µM) is 1.26; with OVCAR4 (carboplatin co-treatment 5 µM) it was 0.628; in the assay on Ov4Carbo (carboplatin co-treatment 0 µM) it was 0.784; with Ov4Carbo (carboplatin co-treatment 5 µM), 0.554.
As to `CC(=O)Oc1ccccc1C(=O)Nc1ncc([N+](=O)[O-])s1` [Nitazoxanide (Alinia, Annita)], the log2 surviving fraction in the assay with OVCAR4 (carboplatin co-treatment 0 µM) is -0.524; in the assay with OVCAR4 (carboplatin co-treatment 5 µM), -0.244; in the assay with Ov4Carbo (carboplatin co-treatment 0 µM) it was 0.585; in the assay on Ov4Carbo (carboplatin co-treatment 5 µM), -0.948.
Turning to `CCN[C@@H]1C[C@H](N)[C@@H](O[C@H]2OC(CN)=CC[C@H]2N)[C@H](O)[C@H]1O[C@H]1OC[C@](C)(O)[C@H](NC)[C@H]1O` [Netilmicin Sulfate], the log2 surviving fraction was -0.38 in the assay with OVCAR4 (carboplatin co-treatment 0 µM), -0.0411 in the assay with OVCAR4 (carboplatin co-treatment 5 µM), 0.257 in the assay on Ov4Carbo (carboplatin co-treatment 0 µM) and -0.986 in the assay on Ov4Carbo (carboplatin co-treatment 5 µM).
`Cc1cccc(C)c1NC1=NCCCS1` [Xylazine HCl]: the log2 surviving fraction with OVCAR4 (carboplatin co-treatment 0 µM) was 0.0759; in the assay with OVCAR4 (carboplatin co-treatment 5 µM) it was 0.0257; in the assay with Ov4Carbo (carboplatin co-treatment 0 µM) it was 1.05; with Ov4Carbo (carboplatin co-treatment 5 µM), -0.000628.
Consider `C=CC[C@@H]1/C=C(\C)C[C@H](C)C[C@H](OC)[C@H]2O[C@@](O)(C(=O)C(=O)N3CCCC[C@H]3C(=O)O[C@H](/C(C)=C/[C@@H]3CC[C@@H](O)[C@H](OC)C3)[C@H](C)[C@@H](O)CC1=O)[C@H](C)C[C@@H]2OC` [FK-506 (Tacrolimus)], for which the log2 surviving fraction with OVCAR4 (carboplatin co-treatment 0 µM) is -1.11; with OVCAR4 (carboplatin co-treatment 5 µM), 1.58; with Ov4Carbo (carboplatin co-treatment 0 µM) it was -0.0473; in the assay on Ov4Carbo (carboplatin co-treatment 5 µM), -1.65.
In the same order, the values of `O=S(=O)(O)Oc1ccc(C(c2ccc(OS(=O)(=O)O)cc2)c2ccccn2)cc1` [Sodium Picosulfate] are 0.361, 0.576, 0.512 and 0.478.
In the same order, the values of `C[C@](N)(Cc1ccc(O)c(O)c1)C(=O)O` [Methyldopa (Aldomet)] are -4.33, 0.634, -0.72 and -0.481.
Regarding `Cn1ccnc1S` [Methimazole (Tapazole, Northyx)], the log2 surviving fraction with OVCAR4 (carboplatin co-treatment 0 µM) is -3.38; in the assay on OVCAR4 (carboplatin co-treatment 5 µM), 2.28; with Ov4Carbo (carboplatin co-treatment 0 µM) it was 0.00306; in the assay on Ov4Carbo (carboplatin co-treatment 5 µM), 0.0596.
On to `CCOC(=O)c1ccc(OC(=O)CCCCCNC(=N)N)cc1` [Gabexate mesylate], for which the log2 surviving fraction in the assay with OVCAR4 (carboplatin co-treatment 0 µM) is 0.872; with OVCAR4 (carboplatin co-treatment 5 µM) it was 0.482; with Ov4Carbo (carboplatin co-treatment 0 µM), -0.147; in the assay with Ov4Carbo (carboplatin co-treatment 5 µM) it was 0.204.
As for `CCCN[C@H]1CCc2nc(N)sc2C1` [Pramipexole (Mirapex)], the log2 surviving fraction with OVCAR4 (carboplatin co-treatment 0 µM) was found to be 0.487; in the assay with OVCAR4 (carboplatin co-treatment 5 µM), 0.549; in the assay on Ov4Carbo (carboplatin co-treatment 0 µM), 0.146; in the assay on Ov4Carbo (carboplatin co-treatment 5 µM), 0.61.
Regarding `COc1cc2c(cc1Cc1cccc(Cl)c1F)c(=O)c(C(=O)O)cn2[C@H](CO)C(C)C` [Elvitegravir (GS-9137)], the log2 surviving fraction in the assay on OVCAR4 (carboplatin co-treatment 0 µM) is -1.58; in the assay on OVCAR4 (carboplatin co-treatment 5 µM) it was 0.68; in the assay with Ov4Carbo (carboplatin co-treatment 0 µM), 0.0235; in the assay on Ov4Carbo (carboplatin co-treatment 5 µM), 0.718.
With `CC[C@H](C)C(=O)O[C@H]1C[C@H](O)C=C2C=C[C@H](C)[C@H](CC[C@@H](O)C[C@@H](O)CC(=O)O)[C@H]21` [Pravastatin sodium], the log2 surviving fraction is 0.312 in the assay with OVCAR4 (carboplatin co-treatment 0 µM), -0.016 with OVCAR4 (carboplatin co-treatment 5 µM), -0.43 with Ov4Carbo (carboplatin co-treatment 0 µM) and -0.234 with Ov4Carbo (carboplatin co-treatment 5 µM).
Turning to `O=C(Nc1ccccc1)OCC(CN1CCCCC1)OC(=O)Nc1ccccc1` (stereo not drawn) [Diperodon HCl], the log2 surviving fraction was -1.16 in the assay on OVCAR4 (carboplatin co-treatment 0 µM), -2.15 in the assay on OVCAR4 (carboplatin co-treatment 5 µM), -1.61 in the assay with Ov4Carbo (carboplatin co-treatment 0 µM) and -1.31 in the assay with Ov4Carbo (carboplatin co-treatment 5 µM).
For `Cc1onc(-c2ccccc2)c1-c1ccc(S(N)(=O)=O)cc1` [Bextra (valdecoxib)], the log2 surviving fraction in the assay on OVCAR4 (carboplatin co-treatment 0 µM) amounted to 0.594; in the assay on OVCAR4 (carboplatin co-treatment 5 µM), 0.451; in the assay on Ov4Carbo (carboplatin co-treatment 0 µM), 1.32; in the assay with Ov4Carbo (carboplatin co-treatment 5 µM), 1.48.
The matching figures for `COc1cc(C(=O)NC2CCCNC2)cc(OC)c1OC` (stereo not drawn) [Troxipide]: -0.0274, 0.76, 0.498 and 0.863.
The matching figures for `CCC(C)n1ncn(-c2ccc(N3CCN(c4ccc(OCC5COC(Cn6cncn6)(c6ccc(Cl)cc6Cl)O5)cc4)CC3)cc2)c1=O` (stereo not drawn) [Itraconazole (Sporanox)]: 0.629, 0.614, 0.369 and -0.271.
On to `CC(C)NCC(O)COc1ccc(CCOCC2CC2)cc1` (stereo not drawn) [Betaxolol hydrochloride (Betoptic)], for which the log2 surviving fraction in the assay on OVCAR4 (carboplatin co-treatment 0 µM) was found to be 0.735; in the assay on OVCAR4 (carboplatin co-treatment 5 µM), 0.792; in the assay on Ov4Carbo (carboplatin co-treatment 0 µM) it was 0.335; with Ov4Carbo (carboplatin co-treatment 5 µM), 0.425.
Turning to `Nc1ccc(S(=O)(=O)Nc2ccccn2)cc1` [Sulfapyridine (Dagenan)], the log2 surviving fraction is 0.63 with OVCAR4 (carboplatin co-treatment 0 µM), -0.149 with OVCAR4 (carboplatin co-treatment 5 µM), 0.152 with Ov4Carbo (carboplatin co-treatment 0 µM) and -0.171 in the assay with Ov4Carbo (carboplatin co-treatment 5 µM).
With `CN(CCOc1ccc(CC2SC(=O)NC2=O)cc1)c1ccccn1` (stereo not drawn) [Rosiglitazone maleate], the log2 surviving fraction is 0.482 with OVCAR4 (carboplatin co-treatment 0 µM), 0.37 in the assay on OVCAR4 (carboplatin co-treatment 5 µM), 0.852 in the assay with Ov4Carbo (carboplatin co-treatment 0 µM) and 0.475 in the assay with Ov4Carbo (carboplatin co-treatment 5 µM).
In the case of `CCCC1O[C@@H]2C[C@H]3[C@@H]4CCC5=CC(=O)C=C[C@]5(C)[C@H]4[C@@H](O)C[C@]3(C)[C@]2(C(=O)CO)O1` (stereo partly drawn) [Budesonide], the log2 surviving fraction was 0.142 with OVCAR4 (carboplatin co-treatment 0 µM), 0.968 with OVCAR4 (carboplatin co-treatment 5 µM), -0.284 with Ov4Carbo (carboplatin co-treatment 0 µM) and 0.131 in the assay on Ov4Carbo (carboplatin co-treatment 5 µM).
With `NCCCC[C@H](N[C@@H](CCc1ccccc1)C(=O)O)C(=O)N1CCC[C@H]1C(=O)O` [Lisinopril (Zestril)], the log2 surviving fraction with OVCAR4 (carboplatin co-treatment 0 µM) stood at 0.262; in the assay with OVCAR4 (carboplatin co-treatment 5 µM), 0.215; in the assay with Ov4Carbo (carboplatin co-treatment 0 µM), 1.68; in the assay on Ov4Carbo (carboplatin co-treatment 5 µM), 0.777.
Regarding `Cc1cccc([C@H](C)c2c[nH]cn2)c1C` [Dexmedetomidine], the log2 surviving fraction in the assay on OVCAR4 (carboplatin co-treatment 0 µM) is 0.419; with OVCAR4 (carboplatin co-treatment 5 µM), -1.52; in the assay on Ov4Carbo (carboplatin co-treatment 0 µM), 0.615; with Ov4Carbo (carboplatin co-treatment 5 µM) it was 1.23.
As to `CCCCCCCCCCCCCCCC(=O)O[C@@H]1[C@@H](O)[C@@H](O)[C@@H]([C@H](NC(=O)[C@@H]2C[C@@H](CCC)CN2C)[C@H](C)Cl)O[C@@H]1SC` [Clindamycin palmitate HCl], the log2 surviving fraction with OVCAR4 (carboplatin co-treatment 0 µM) was -0.211; in the assay on OVCAR4 (carboplatin co-treatment 5 µM), 0.0465; in the assay with Ov4Carbo (carboplatin co-treatment 0 µM), 0.169; with Ov4Carbo (carboplatin co-treatment 5 µM) it was 0.211.
As to `CCC(=O)O[C@@H](O[P@](=O)(CCCCc1ccccc1)CC(=O)N1C[C@H](C2CCCCC2)C[C@H]1C(=O)O)C(C)C` [Fosinopril sodium (Monopril)], the log2 surviving fraction in the assay on OVCAR4 (carboplatin co-treatment 0 µM) is 1.33; in the assay with OVCAR4 (carboplatin co-treatment 5 µM) it was 0.43; in the assay on Ov4Carbo (carboplatin co-treatment 0 µM), 0.763; in the assay on Ov4Carbo (carboplatin co-treatment 5 µM) it was 0.195.
Consider `O=C(O)c1cc(=O)c2c(OCC(O)COc3cccc4oc(C(=O)O)cc(=O)c34)cccc2o1` [Disodium Cromoglycate], for which the log2 surviving fraction with OVCAR4 (carboplatin co-treatment 0 µM) is 0.867; with OVCAR4 (carboplatin co-treatment 5 µM), 1.27; in the assay with Ov4Carbo (carboplatin co-treatment 0 µM) it was 0.636; in the assay on Ov4Carbo (carboplatin co-treatment 5 µM) it was 0.892.
